Measured values from PubChem BioAssay AID493005 (National Center for Advancing Translational Sciences (NCATS), 2010).
In all, about 340,000 compounds went through this assay and fewer than 10 were called active. The inconclusive results got no clear call from the source; some entries with a clear call stand among them for comparison. Calls follow the shape of the dose curve; as a rule, active = well fitted inhibition curve with a large enough effect in the main read-out, with a control signal flat (not every such curve was filed as active); inconclusive = small, poorly fitted or top-dose-only effect, or effect the other way, or a change in a side signal; inactive = no such curve, though single readings can be large or run the other way. Where the call is inconclusive, the potency comes from a doubtful curve fit. A note “side channel” means that the fit belongs to a control or component signal, not to the main read-out.

Each compound was assayed against Tumor susceptibility gene 101 protein (Homo sapiens) (UniProt Q99816) (assay: qHTS Assay for Iinhibitors of HIV-1 Budding by Blocking the Interaction of PTAP/TSG101). Conditions: Fluorescence polarization, FITC-PTAP peptide / Tsg101 binding; activity change, negative = inhibition: at 115 µM (top of the series).
How it was run: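 Fluorescence anisotropy tracks displacement of a FITC-tagged PTAP peptide (50 nM) from the Tsg101 binding domain (10 uM), following a 20 min room-temperature incubation at pH 7.5.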
For activity change, negative = inhibition in this document: % of control where 0% means no effect.
Potency is read from the fitted curve at half-maximal effect; tags tell the direction and shape of the fitted curve or compound fluorescence and quenching.

UniProt Q99816, sequence (Q99816 whole entry, looked up, the tested form may be a part): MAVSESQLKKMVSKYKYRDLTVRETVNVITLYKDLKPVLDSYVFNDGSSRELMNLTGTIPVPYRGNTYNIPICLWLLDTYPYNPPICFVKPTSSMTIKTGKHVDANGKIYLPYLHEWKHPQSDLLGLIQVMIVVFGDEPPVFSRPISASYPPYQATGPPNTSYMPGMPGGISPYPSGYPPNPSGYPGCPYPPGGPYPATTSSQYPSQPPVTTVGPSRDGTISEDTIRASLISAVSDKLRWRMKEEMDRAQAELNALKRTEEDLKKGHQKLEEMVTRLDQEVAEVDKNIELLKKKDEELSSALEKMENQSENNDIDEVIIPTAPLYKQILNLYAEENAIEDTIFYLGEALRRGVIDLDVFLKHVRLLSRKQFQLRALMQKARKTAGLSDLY

SMILES	Potency	activity change, negative = inhibition
Cc1ccc2oc(=O)c(/C=C(\O)c3ccco3)nc2c1	inconclusive: 79.4 µM [fluorescent, side channel, partial curve]	–
O=C(CSc1nnc(-c2ccncc2)o1)Nc1cccc(Cl)c1	inconclusive: 17.8 µM [quencher, side channel, partial curve, poor fit]	–
O=C(O)/C=C/C(=O)c1ccc2c(c1)CCc1ccccc1-2	–	inactive: -3.73%
CCN(CC)c1ccc(/C=C(/C#N)C(=O)NC(C)C)o1	inconclusive: 44.7 µM [fluorescent, side channel, partial curve, poor fit]	–
NS(=O)(=O)c1ccc(-c2ccc(/C=C3\SC(=S)N(C4CCS(=O)(=O)C4)C3=O)o2)cc1 (configuration not stated)	inconclusive: 20 µM [fluorescent, side channel, partial curve, poor fit]	–
Cc1sc(-n2c(C)cc(/C=C3\SC(=S)NC3=O)c2C)c(C#N)c1C	inconclusive: 79.4 µM [fluorescent, side channel, single point]	–
Cc1ccc(N=Cc2c(O)ccc3ccccc23)cc1F	inconclusive: 89.1 µM [fluorescent, single point]	–
Cc1cccc(NC(=S)NCCC(c2ccccc2)c2ccccc2)c1	inconclusive: 100 µM [falling, single point]	–
Cc1cc([N+](=O)[O-])ccc1-c1ccc(/C=N/NC(=O)Cc2ccccc2)o1	inconclusive: 56.2 µM [fluorescent, partial curve, poor fit]	–
Cn1c(/C(C#N)=C/c2ccc(-c3ccc(S(N)(=O)=O)cc3)o2)nc2ccccc21	inconclusive: 50.1 µM [fluorescent, partial curve, poor fit]	–
COc1ccc(NC(=O)COC(=O)c2cc(=O)c3ccccc3o2)cc1OC	–	inactive: 0.653%
CN(C)c1ccc(/C=N/NC(=O)c2cnc3ccccc3c2)cc1	inconclusive: 56.2 µM [fluorescent, side channel, partial curve, poor fit]	–
CC(C)c1ccc(C(=O)Nc2ccc(CN3CCOCC3)cc2)cc1	–	inactive: -7.38%
CCN1CCN(C(=O)CCn2c(=O)c3cccn3c3cccnc32)CC1	inconclusive: 89.1 µM [fluorescent, side channel, partial curve, poor fit]	–
CC1=CC(=C(C#N)c2nc3ccccc3s2)C=C(C)N1c1ccc(F)cc1F	inconclusive: 56.2 µM [fluorescent, side channel, partial curve, poor fit]	–
COc1ccccc1C(=O)COC(=O)c1cc([N+](=O)[O-])ccc1N1CCOCC1	–	inactive: 0.985%
Cc1cc2nc3c(=O)n(C4CCCCC4)c(=O)[nH]c3nc2cc1N	inconclusive: 44.7 µM [fluorescent, side channel, partial curve, poor fit]	–
CCCn1c(O)c(N=Nc2ccc3ccccc3n2)c2ccccc21	inconclusive: 89.1 µM [fluorescent, partial curve, poor fit]	–
CCCCCCCCCCCCN1[C@@H](CC(=O)O)c2cc(C(F)(F)F)ccc2S1(=O)=O	inconclusive: 79.4 µM [quencher, side channel, partial curve, poor fit]	–

SMILES	Potency	activity change, negative = inhibition
Cc1cc(NC(=O)COC(=O)C(Nc2ccc(C(F)(F)F)cc2Cl)C(C)C)no1 (configuration not stated)	inconclusive: 28.2 µM [quencher, side channel, partial curve, poor fit]	–
CN(C)c1ccc(N=Cc2nc(-c3ccccc3)oc2OC(=O)c2cccc(Cl)c2)cc1	inconclusive: 56.2 µM [fluorescent, side channel, partial curve, poor fit]	–
O=[N+]([O-])c1cc(Cl)cc(/C=N/NC(=S)Nc2ccc(S(=O)(=O)N3CCOCC3)cc2)c1O	inconclusive: 89.1 µM [falling, single point]	–
COC(=O)c1cc(NC(=O)c2ccccc2)c(=O)oc1C/C=N\OCc1ccc(Cl)cc1Cl	inconclusive: 89.1 µM [fluorescent, side channel, single point]	–
Cc1noc(C)c1COc1ccccc1C(=O)N(C)Cc1ccc(C(C)(C)C)cc1	inconclusive: 79.4 µM [quencher, side channel, partial curve, poor fit]	–
Cc1n[nH]c(C)c1S(=O)(=O)N1CCCC(C(=O)N2CCN(c3ccc(Cl)cc3)CC2)C1 (configuration not stated)	–	inactive: -5.49%
COC(=O)c1ccccc1NC(=O)Cn1nnc(-c2ccc(OC)cc2)n1	–	inactive: -5.28%
CCOC(=O)/C(=C\c1ccc(N2CCC(c3ccccc3)=N2)cc1)C(C)=O	inconclusive: 56.2 µM [fluorescent, side channel, partial curve, poor fit]	–
FC(F)Oc1ccc(NC(=S)NNc2ccnc3cc(Cl)ccc23)cc1	inconclusive: 50.1 µM [fluorescent, side channel, partial curve, poor fit]	–
CC1=Nc2ccccc2/C1=C/c1nc(-c2ccc(C)s2)oc1O	inconclusive: 50.1 µM [fluorescent, side channel, partial curve, poor fit]	–
CC[C@@]1(O)C(=O)OCc2c1cc1n(c2=O)Cc2cc3c(CN(C)C)c(O)ccc3nc2-1	inconclusive: 56.2 µM [fluorescent, side channel, partial curve, poor fit]	–
CCc1ccc(/C=C2/C(=O)N(C)C(=S)N2CC(=O)OC)s1	inconclusive: 79.4 µM [fluorescent, side channel, partial curve, poor fit]	–
O=C(/C=C/c1cccs1)N1CCN(c2ccc(O)cc2)CC1	–	inactive: -2.69%
CC1CCN(CCCCOc2ccccc2Br)CC1	–	inactive: 0.218%
C=CCSc1nnc2nc3[nH]c4c(C)cccc4c3nn12	inconclusive: 79.4 µM [fluorescent, side channel, single point]	–
Oc1ccc2ccccc2c1C=Nc1ccccc1Br	inconclusive: 79.4 µM [fluorescent, side channel, partial curve]	–
Cc1cc(C)n(-c2nc3ccccc3nc2Nc2ccc3[nH]c(=O)[nH]c3c2)n1	inconclusive: 56.2 µM [fluorescent, side channel, partial curve, poor fit]	–
Cc1sc2ncnc(N3CCC(C(=O)NNC(=O)COc4ccccc4Cl)CC3)c2c1C	–	inactive: 0.308%
CCOc1ccc2cc(S(=O)(=O)n3ccnc3C)ccc2c1	–	inactive: 0.187%

SMILES	Potency	activity change, negative = inhibition
CC(C)(C)S(=O)(=O)/C(C#N)=N/Nc1ccc(S(N)(=O)=O)cc1	–	inconclusive: 66.1% [activator]
CC1CCN(c2ccc3c(c2)S(=O)(=O)c2cccc(C(=O)NCc4ccc(F)cc4)c2C3=O)CC1	inconclusive: 79.4 µM [fluorescent, side channel, partial curve, poor fit]	–
O=C(NNC(=S)Nc1ccccc1)c1cc(-c2cccnc2)nc2ccccc12	–	inactive: -2.01%
COc1ccc(-c2onc3ccc(C(=O)/C=C/N(C)C)cc23)cc1	inconclusive: 89.1 µM [fluorescent, side channel, single point]	–
COc1ccc(OC)c(/C=c2\sc3nc(-c4cccs4)nn3c2=O)c1	inconclusive: 79.4 µM [fluorescent, side channel, partial curve, poor fit]	–
O=C(NC1CCCCC1)C(c1ccco1)N(C(=O)c1csnn1)c1cccc(F)c1 (configuration not stated)	inconclusive: 50.1 µM [fluorescent, side channel, partial curve, poor fit]	–
CCOC(=O)c1sc(Nc2ccc(OCC)cc2)nc1C	–	inactive: 1.63%
Cn1c(=O)cc(Nc2ccccc2)c2c(=O)n(-c3ccccc3)c(=O)n(-c3ccccc3)c21	inconclusive: 79.4 µM [quencher, side channel, partial curve, poor fit]	–
O=C(CCCOc1ccc(Cl)cc1Cl)NCCCn1ccnc1	–	inactive: -2.46%
O=C1NC(=S)/C(=C\c2ccc(-c3ccccc3Cl)o2)S1	inconclusive: 56.2 µM [falling, partial curve, poor fit]	–
Cc1cc(NC(=O)CS(=O)(=O)c2cn(Cc3cccc(F)c3)c3ccccc23)no1	–	inactive: -1.5%
CCOC(=O)COn1c(=O)c(-c2cc3ccccc3o2)[n+]([O-])c2ccccc21	inconclusive: 50.1 µM [fluorescent, side channel, partial curve, poor fit]	–
CCCn1c(SCC(=O)Nc2cc(Cl)ccc2Cl)n[nH]c1=O	inconclusive: 100 µM [fluorescent, side channel, partial curve]	–
CCCCCCc1cc2cc(-c3nnc(-c4ccccc4O)o3)c(=O)oc2cc1O	inconclusive: 3.55 µM [fluorescent, side channel, full curve, poor fit]	–
Cc1ccc(CNCC(O)(c2ccc(F)cc2)c2ccc(F)cc2)cc1	–	inactive: 2.4%
N#CCSc1ccccc1NC(=O)CN1C(=O)C2CC=CCC2C1=O (configuration not stated)	inconclusive: 44.7 µM [fluorescent, side channel, partial curve, poor fit]	–
Cn1cc(/C=C2\SC(=S)N(NC(=O)c3ccccc3Cl)C2=O)c2ccccc21	inconclusive: 56.2 µM [fluorescent, side channel, partial curve, poor fit]	–
COc1ccc(OC)c(N=Cc2c(O)c3ccccc3oc2=O)c1	inconclusive: 56.2 µM [fluorescent, side channel, partial curve, poor fit]	–
CCC1(c2ccccc2)NC(=O)N(CC(=O)Nc2ccc(OC)nc2)C1=O (configuration not stated)	inconclusive: 56.2 µM [fluorescent, side channel, partial curve, poor fit]	–
